# The other results are listed elsewhere or left out. The full chains were built here from the parent and the listed change. Values near 0.05 are background.
# B1: TEV protease; numbered along this chain (parent)
# chain: MGESLFKGPRDYNPISSSICHLTNESDGHTTSLYGIGFGPFIITNKHLFRRNNGTLVVQSLHGVFKVKDTTTLQQHLVDGRDMIIIRMPKDFPPFPQKLKFREPQREERICLVTTNFQTKSMSSMVSDTSCTFPSGDGIFWKHWIQTKDGQCGSPLVSTRDGFIVGIHSASNFTNTNNYFTSVPKNFMELLTNQEAQQWVSGWRLNADSVLWGGHKVFMVKPEEPFQPVKEATQL
# Variants of: B1
# Assay: raw area under fraction-flipped curve 0-4 h after induction (AUC4h, not background-subtracted), DNA-recorder readout of cleavage of the substrate (dimensionless); higher = more cleavage of the substrate by the protease variant
# Conditions: temperature: 34 °C; time window: 0-4 h after rhamnose induction
# Description: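 In vivo DNA recorder in E. coli TOP10(DE3) ΔrhaA at 34 °C. Each TEVp single-site mutant (parent TEVp 0) is paired with a single-site variant of the 7-mer TEVs (canonical ENLYFQ|S). The substrate sits between flexible linkers in a Bxb1-sfGFP-TEVs-SsrA fusion, so cleavage stabilises Bxb1 and speeds flipping of a recombination array, read by NGS. The value is the raw area under the fraction-flipped curve over 0-4 h after rhamnose induction (AUC4h), with ≥20 reads per time point. It is not background-subtracted; inactive controls average about 0.047.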
# 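Note: Bxb1 expression induced with 0.2% (w/v) L-rhamnose at OD600 near 0.5, cultures sampled hourly, flipped fraction per protease–substrate barcode pair counted by paired-end Illumina sequencing.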
Variant,area with substrate CNLYFQS,area with substrate DNLYFQS,area with substrate FNLYFQS,area with substrate GNLYFQS,area with substrate HNLYFQS,area with substrate INLYFQS,area with substrate KNLYFQS,area with substrate MNLYFQS,area with substrate NNLYFQS,area with substrate PNLYFQS,area with substrate TNLYFQS,area with substrate WNLYFQS,area with substrate YNLYFQS,area with substrate LNLYFQS,area with substrate RNLYFQS,area with substrate SNLYFQS,area with substrate VNLYFQS,area with substrate QNLYFQS
L61W,0.0601,0.0841,0.057,0.0688,0.0559,0.0544,0.0649,0.0606,0.0504,0.0439,0.0822,0.061,0.0627,,,,,
H62A,0.081,0.0642,0.0527,0.0708,,,0.0394,,0.0488,0.0667,0.0797,0.0637,,0.0802,0.0445,0.0629,,
F65G,0.0538,0.0666,0.0489,0.0594,0.0731,,0.0698,0.0483,0.0601,0.0679,0.0634,0.0553,,,,,,
F65L,0.0546,0.0868,,0.0654,0.0604,,,0.0842,,,,0.055,0.045,0.0472,,0.0651,0.0739,
K66L,0.0633,0.0838,,0.0721,0.0625,,0.0741,0.06,0.058,0.0675,,0.0657,0.0418,0.0569,0.0699,0.0674,,0.0603
D69E,0.0715,0.0592,,,0.0916,0.064,0.0575,,,0.0436,,,0.0585,0.0598,,,,
T70E,0.0718,0.0663,,,,0.0606,0.0571,0.0525,0.054,0.0521,,,0.0356,,,0.0554,,
T70I,0.059,0.0691,0.0649,0.0487,0.0615,0.0617,,0.0767,0.0616,0.0584,0.0788,0.0614,0.0654,,0.0582,0.0597,0.0632,
T71E,0.0632,0.0745,0.0671,0.078,0.063,0.0335,0.0332,0.065,0.0635,0.0694,0.0709,0.0572,,0.0761,,,,
L73I,0.0708,0.13,0.052,0.0697,0.0646,,0.0393,,0.0693,0.0744,0.0525,0.0793,0.0733,,0.0664,0.0597,,
Q75F,0.0613,0.0737,,,0.0582,0.0357,0.0477,0.0717,0.0565,0.069,0.0564,0.0504,0.0538,0.0609,,,,0.0586
Q75K,0.0602,0.0603,0.0587,0.066,0.0503,,,,0.0651,0.0647,0.0638,0.0529,0.065,0.0615,,0.0606,,
Q75R,0.0577,0.0573,,0.0578,0.0564,0.0365,0.0533,0.083,,0.0638,,0.0615,0.0454,,,0.0703,0.0456,
H76R,0.0719,0.0555,0.0696,0.0574,0.0588,0.0443,,,,0.0759,0.0737,0.0634,0.0482,0.0619,,0.0783,,
L77H,0.0598,0.0947,,0.0816,0.0601,0.0627,0.0588,0.0529,,0.0857,0.0642,0.0694,0.0602,0.056,,0.0633,,
L77I,0.0664,0.0721,,,0.0506,0.0735,0.0651,0.0565,,0.058,0.0576,0.0704,,0.0403,,,,0.0608
L77Y,0.0476,0.0665,0.0603,0.0309,0.0566,0.0599,0.0642,0.0603,,0.0603,0.052,,0.0505,,,0.057,,0.0608
V78P,0.0552,0.0649,0.0535,0.047,0.0566,0.0518,,,0.0382,0.0645,0.0628,0.0613,0.0589,0.079,,0.0571,0.0644,
V78W,0.0751,0.0727,,,0.0476,,0.0588,,0.0552,0.0582,0.0492,0.0565,0.0478,0.0536,,0.0559,,
V78Y,0.0618,0.0606,0.0453,0.0651,0.053,0.0613,0.0486,,0.0487,,0.0838,0.0704,0.0463,0.0512,,0.0774,0.0501,
R81C,0.0649,0.0666,,0.0562,0.0605,0.0521,0.055,,0.0519,,0.0657,0.0553,0.0537,0.0895,0.0438,0.0629,,
D82K,0.0477,0.0379,0.0647,0.0481,0.0523,0.0479,,,0.0593,,0.0463,0.0606,,,,0.053,,
D82N,0.0611,0.0526,,0.0648,0.0585,0.0477,0.0634,0.0665,0.0546,0.0696,0.0555,0.0611,,0.0614,0.0564,0.0531,0.061,0.0583
M83D,0.0463,0.0514,0.0503,0.0904,0.054,0.0512,0.0441,0.0479,0.0572,,0.0549,0.0482,0,0.0448,,0.0616,0.0362,
I84E,0.0534,0.0447,0.0491,,0.0509,0.0464,0.0576,0.0519,0.0473,0.0644,0.0545,0.0483,0.0539,0.0358,,0.0556,0.0514,0.0506
I84G,0.0633,0.0513,,,0.043,0.0383,0.046,,0.0587,,,,0.0441,0.066,0.0656,0.0625,0.0415,
I85R,0.0693,0.0582,,0.0529,0.057,,0.0554,0.0586,0.0601,0.0575,0.0698,,,,,,0.0544,
I86Q,0.0345,0.039,0.04,,0.0395,,0.0562,0.0398,,0.0453,0.0313,0.0339,0.0321,0.0371,,0.0273,,
